Experimental data from publication PMC11157048, “The influence of drug-induced metabolic enzyme activity inhibition and CYP3A4 gene polymorphism on aumolertinib metabolism” (Frontiers in Pharmacology, 2024).
Where a chain is given by its changes, count along the chain named. Names and notes keep the numbering of the source.

Substrate: C=CC(=O)Nc1cc(Nc2nccc(-c3cn(C4CC4)c4ccccc34)n2)c(OC)cc1N(C)CCN(C)C
Assay: cells, lysate or membranes named
[1] = other: variant *10, substrate aumolertinib
[2] = other: variant *23, substrate aumolertinib
[3] = other: variant *9, substrate aumolertinib
[4] = other: variant *16, substrate aumolertinib
[5] = other: variant *31 (*H324Q), substrate aumolertinib
[6] = other: variant *4, substrate aumolertinib
[7] = other: variant *8, substrate aumolertinib
[8] = other: variant *18, substrate aumolertinib
[9] = other: variant *32 (*I335T), substrate aumolertinib
[10] = other: variant *14, substrate aumolertinib
[11] = other: variant *15, substrate aumolertinib
[12] = other: variant *33 (*A370S), substrate aumolertinib
[13] = other: variant *19, substrate aumolertinib
[14] = other: variant *29 (*F113I), substrate aumolertinib
[15] = other: variant *3, substrate aumolertinib
[16] = other: variant *5, substrate aumolertinib
[17] = other: variant *12, substrate aumolertinib
[18] = other: variant *13, substrate aumolertinib
[19] = other: variant *34 (*I427V), substrate aumolertinib
[20] = other: variant *28 (*L22V), substrate aumolertinib
[21] = other: variant *7, substrate aumolertinib
[22] = other: variant *24, substrate aumolertinib
[23] = other: variant *1 (wild type), substrate aumolertinib
[24] = other: variant *17, substrate aumolertinib

B1: CYP3A4.10 (Homo sapiens; D174H) (protein)
chain: MALIPDLAMETWLLLAVSLVLLYLYGTHSHGLFKKLGIPGPTPLPFLGNILSYHKGFCMFDMECHKKYGKVWGFYDGQQPVLAITDPDMIKTVLVKECYSVFTNRRPFGPVGFMKSAISIAEDEEWKRLRSLLSPTFTSGKLKEMVPIIAQYGDVLVRNLRREAETGKPVTLKHVFGAYSMDVITSTSFGVNIDSLNNPQDPFVENTKKLLRFDFLDPFFLSITVFPFLIPILEVLNICVFPREVTNFLRKSVKRMKESRLEDTQKHRVDFLQLMIDSQNSKETESHKALSDLELVAQSIIFIFAGYETTSSVLSFIMYELATHPDVQQKLQEEIDAVLPNKAPPTYDTVLQMEYLDMVVNETLRLFPIAMRLERVCKKDVEINGMFIPKGVVVMIPSYALHRDPKYWTEPEKFLPERFSKKNKDNIDPYIYTPFGSGPRNCIGMRFALMNMKLALIRVLQNFSFKPCKETQIPLKLSLGGLLQPEKPVVLKVESRDGTVSGA
**Q.** Which Km [1] does the source give for B1 here?
**A.** Its Km is 2.314 ± 0.065 µM.

**Q.** What about the kcat [1] of the same protein?
**A.** The kcat was 0.0174 s⁻¹.

**Q.** What about the kcat/Km [1] of the same protein?
**A.** The kcat/Km was 7530 M⁻¹ s⁻¹.

B2: CYP3A4.23 (Homo sapiens; R162W) (protein)
chain: B1 chain with R162W, H174D
**Q.** Which results are given for B2?
**A.** Km [2]: 4.085 ± 0.391 µM; kcat [2]: 0.0194 s⁻¹; kcat/Km [2]: 4770 M⁻¹ s⁻¹

B3: CYP3A4.9 (Homo sapiens; V170I) (protein)
chain: B1 chain with V170I, H174D
**Q.** Which results are given for B3?
**A.** Km [3]: 4.080 ± 0.370 µM; kcat [3]: 0.0213 s⁻¹; kcat/Km [3]: 5250 M⁻¹ s⁻¹

B4: CYP3A4.16 (Homo sapiens; T185S) (protein)
chain: B1 chain with H174D, T185S
**Q.** What does the source list for B4?
**A.** Km [4]: 3.013 ± 0.205 µM; kcat [4]: 0.023 s⁻¹; kcat/Km [4]: 7670 M⁻¹ s⁻¹

B5: CYP3A4.31 (Homo sapiens; H324Q) (protein)
chain: B1 chain with H174D, H324Q
**Q.** How did the Km [5] turn out when B5 was run?
**A.** Its Km is 3.213 ± 0.502 µM.

**Q.** And the kcat [5]?
**A.** The kcat was 0.0188 s⁻¹.

**Q.** What about the kcat/Km [5] of the same protein?
**A.** Its kcat/Km is 5930 M⁻¹ s⁻¹.

B6: CYP3A4.4 (Homo sapiens; I118V) (protein)
chain: B1 chain with I118V, H174D
**Q.** With B6 as the protein, how does the Km [6] read?
**A.** The Km was 3.952 ± 0.389 µM.

**Q.** What about the kcat [6] of the same protein?
**A.** Its kcat is 0.0192 s⁻¹.

**Q.** And the kcat/Km [6]?
**A.** The kcat/Km was 4880 M⁻¹ s⁻¹.

B7: CYP3A4.8 (Homo sapiens; R130Q) (protein)
chain: B1 chain with R130Q, H174D
**Q.** What does the source list for B7?
**A.** Km [7]: 3.158 ± 0.077 µM; kcat [7]: 0.0119 s⁻¹; kcat/Km [7]: 3780 M⁻¹ s⁻¹

B8: CYP3A4.18 (Homo sapiens; L293P) (protein)
chain: B1 chain with H174D, L293P
**Q.** What does the source list for B8?
**A.** Km [8]: 5.859 ± 0.286 µM; kcat [8]: 0.0126 s⁻¹; kcat/Km [8]: 2170 M⁻¹ s⁻¹

B9: CYP3A4.32 (Homo sapiens; I335T) (protein)
chain: B1 chain with H174D, I335T
**Q.** For B9, which Km [9] is on record?
**A.** The Km was 2.963 ± 0.092 µM.

**Q.** And the kcat [9]?
**A.** Its kcat is 0.0293 s⁻¹.

**Q.** And the kcat/Km [9]?
**A.** The kcat/Km was 9900 M⁻¹ s⁻¹.

B10: CYP3A4.14 (Homo sapiens; L15P) (protein)
chain: B1 chain with L15P, H174D
**Q.** With B10 as the protein, how does the Km [10] read?
**A.** The Km was 3.445 ± 0.109 µM.

**Q.** What about the kcat [10] of the same protein?
**A.** Its kcat is 0.0166 s⁻¹.

**Q.** And the kcat/Km [10]?
**A.** Its kcat/Km is 4820 M⁻¹ s⁻¹.

B11: CYP3A4.15 (Homo sapiens; R162Q) (protein)
chain: B1 chain with R162Q, H174D
**Q.** With B11 as the protein, how does the Km [11] read?
**A.** Its Km is 3.540 ± 0.181 µM.

**Q.** And the kcat [11]?
**A.** Its kcat is 0.0377 s⁻¹.

**Q.** What about the kcat/Km [11] of the same protein?
**A.** The kcat/Km was 10700 M⁻¹ s⁻¹.

B12: CYP3A4.33 (Homo sapiens; A370S) (protein)
chain: B1 chain with H174D, A370S
**Q.** How did the Km [12] turn out when B12 was run?
**A.** Its Km is 3.520 ± 0.403 µM.

**Q.** What about the kcat [12] of the same protein?
**A.** The kcat was 0.0224 s⁻¹.

**Q.** What about the kcat/Km [12] of the same protein?
**A.** Its kcat/Km is 6400 M⁻¹ s⁻¹.

B13: CYP3A4.19 (Homo sapiens; P467S) (protein)
chain: B1 chain with H174D, P467S
**Q.** For B13, which Km [13] is on record?
**A.** Its Km is 3.625 ± 0.237 µM.

**Q.** And the kcat [13]?
**A.** Its kcat is 0.0193 s⁻¹.

**Q.** What about the kcat/Km [13] of the same protein?
**A.** The kcat/Km was 5350 M⁻¹ s⁻¹.

B14: CYP3A4.29 (Homo sapiens; F113I) (protein)
chain: B1 chain with F113I, H174D
**Q.** How did the Km [14] turn out when B14 was run?
**A.** Its Km is 4.031 ± 0.319 µM.

**Q.** And the kcat [14]?
**A.** Its kcat is 0.0509 s⁻¹.

**Q.** And the kcat/Km [14]?
**A.** Its kcat/Km is 12600 M⁻¹ s⁻¹.

B15: CYP3A4.3 (Homo sapiens; M445T) (protein)
chain: B1 chain with H174D, M445T
**Q.** For B15, which Km [15] is on record?
**A.** The Km was 3.631 ± 0.149 µM.

**Q.** What about the kcat [15] of the same protein?
**A.** The kcat was 0.0337 s⁻¹.

**Q.** And the kcat/Km [15]?
**A.** Its kcat/Km is 9280 M⁻¹ s⁻¹.

B16: CYP3A4.5 (Homo sapiens; P218R) (protein)
chain: B1 chain with H174D, P218R
**Q.** Which results are given for B16?
**A.** Km [16]: 10.144 ± 0.833 µM; kcat [16]: 0.0314 s⁻¹; kcat/Km [16]: 3100 M⁻¹ s⁻¹

B17: CYP3A4.12 (Homo sapiens; L373F) (protein)
chain: B1 chain with H174D, L373F
**Q.** For B17, which Km [17] is on record?
**A.** Its Km is 19.773 ± 4.091 µM.

**Q.** And the kcat [17]?
**A.** Its kcat is 0.0053 s⁻¹.

**Q.** And the kcat/Km [17]?
**A.** The kcat/Km was 267 M⁻¹ s⁻¹.

B18: CYP3A4.13 (Homo sapiens; P416L) (protein)
chain: B1 chain with H174D, P416L
**Q.** How did the Km [18] turn out when B18 was run?
**A.** The Km was 6.015 ± 0.384 µM.

**Q.** And the kcat [18]?
**A.** Its kcat is 0.00675 s⁻¹.

**Q.** And the kcat/Km [18]?
**A.** Its kcat/Km is 1120 M⁻¹ s⁻¹.

B19: CYP3A4.34 (Homo sapiens; I427V) (protein)
chain: B1 chain with H174D, I427V
**Q.** Which results are given for B19?
**A.** Km [19]: 5.817 ± 0.439 µM; kcat [19]: 0.0122 s⁻¹; kcat/Km [19]: 2100 M⁻¹ s⁻¹

B20: CYP3A4.28 (Homo sapiens; L22V) (protein)
chain: B1 chain with L22V, H174D
**Q.** How did the Km [20] turn out when B20 was run?
**A.** The Km was 2.519 ± 0.054 µM.

**Q.** And the kcat [20]?
**A.** Its kcat is 0.0214 s⁻¹.

**Q.** And the kcat/Km [20]?
**A.** The kcat/Km was 8520 M⁻¹ s⁻¹.

B21: CYP3A4.7 (Homo sapiens; G56D) (protein)
chain: B1 chain with G56D, H174D
**Q.** With B21 as the protein, how does the Km [21] read?
**A.** The Km was 4.937 ± 0.649 µM.

**Q.** And the kcat [21]?
**A.** The kcat was 0.00628 s⁻¹.

**Q.** And the kcat/Km [21]?
**A.** The kcat/Km was 1280 M⁻¹ s⁻¹.

B22: CYP3A4.24 (Homo sapiens; Q200H) (protein)
chain: B1 chain with H174D, Q200H
**Q.** How did the Km [22] turn out when B22 was run?
**A.** The Km was 3.732 ± 0.252 µM.

**Q.** And the kcat [22]?
**A.** Its kcat is 0.0169 s⁻¹.

**Q.** And the kcat/Km [22]?
**A.** Its kcat/Km is 4520 M⁻¹ s⁻¹.

B23: CYP3A4.1 (Homo sapiens) (protein)
chain: B1 chain with H174D
**Q.** For B23, which Km [23] is on record?
**A.** Its Km is 3.204 ± 0.202 µM.

**Q.** What about the kcat [23] of the same protein?
**A.** The kcat was 0.0311 s⁻¹.

**Q.** And the kcat/Km [23]?
**A.** The kcat/Km was 9720 M⁻¹ s⁻¹.

B24: CYP3A4.17 (Homo sapiens; F189S) (protein)
chain: B1 chain with H174D, F189S
**Q.** Which Km [24] does the source give for B24 here?
**A.** The Km was 58.283 ± 13.120 µM.

**Q.** And the kcat [24]?
**A.** Its kcat is 0.00535 s⁻¹.

**Q.** What about the kcat/Km [24] of the same protein?
**A.** Its kcat/Km is 100 M⁻¹ s⁻¹.
